# Laboratory results as given in PMC4336329 (PLoS ONE, 2015).
# Screen size: about 310,000 compounds; about 14,000 (4.5%) showed an effect of 50% or more. The effect is printed as a negative number. Some of the results follow.
# Molecular target: human ether-à-go-go-related gene (hERG) potassium channel (human, UniProt Q12809)
# Experiment: primary screen, population patch clamp on CHO cells stably expressing hERG
# 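Also: peak tail current of the secondary pulse compared with the same well before compound.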
# Chain of human ether-à-go-go-related gene (hERG) potassium channel (Q12809 whole entry, looked up): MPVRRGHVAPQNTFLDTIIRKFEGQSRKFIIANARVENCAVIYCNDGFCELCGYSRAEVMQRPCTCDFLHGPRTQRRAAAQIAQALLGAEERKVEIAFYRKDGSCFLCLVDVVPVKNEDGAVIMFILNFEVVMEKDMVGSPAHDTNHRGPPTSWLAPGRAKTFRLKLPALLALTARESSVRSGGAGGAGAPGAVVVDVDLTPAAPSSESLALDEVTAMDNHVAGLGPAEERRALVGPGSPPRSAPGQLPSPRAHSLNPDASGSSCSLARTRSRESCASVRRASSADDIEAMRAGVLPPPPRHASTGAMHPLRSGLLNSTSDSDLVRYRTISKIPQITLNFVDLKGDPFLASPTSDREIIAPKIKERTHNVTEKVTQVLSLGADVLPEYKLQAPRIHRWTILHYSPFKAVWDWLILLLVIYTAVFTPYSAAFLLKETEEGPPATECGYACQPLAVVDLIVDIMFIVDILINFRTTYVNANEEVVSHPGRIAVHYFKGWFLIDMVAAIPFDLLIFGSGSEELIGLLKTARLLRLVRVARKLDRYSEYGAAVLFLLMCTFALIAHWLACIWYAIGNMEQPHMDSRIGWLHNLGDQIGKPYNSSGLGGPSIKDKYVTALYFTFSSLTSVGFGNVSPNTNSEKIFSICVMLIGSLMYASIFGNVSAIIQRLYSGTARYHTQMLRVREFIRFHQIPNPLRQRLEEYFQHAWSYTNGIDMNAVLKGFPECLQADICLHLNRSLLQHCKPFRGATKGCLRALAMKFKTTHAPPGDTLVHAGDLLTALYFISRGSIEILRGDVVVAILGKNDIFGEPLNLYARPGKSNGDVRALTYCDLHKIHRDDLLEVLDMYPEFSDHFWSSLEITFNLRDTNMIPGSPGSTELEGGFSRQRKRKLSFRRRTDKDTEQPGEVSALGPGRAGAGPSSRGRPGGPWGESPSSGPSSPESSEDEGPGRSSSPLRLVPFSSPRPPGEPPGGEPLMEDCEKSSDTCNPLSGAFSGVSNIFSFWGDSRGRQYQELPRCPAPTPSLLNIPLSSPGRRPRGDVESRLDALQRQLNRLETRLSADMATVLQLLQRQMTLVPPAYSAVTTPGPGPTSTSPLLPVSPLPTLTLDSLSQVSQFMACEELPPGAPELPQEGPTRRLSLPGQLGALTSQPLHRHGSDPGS
row,Compound,"hERG current change (%, negative = inhibition) at 10uM [%]"
1,COc1ccc(Cl)cc1-c1nc(-c2ccc(Br)o2)no1,13.3
2,CCOc1cc(C)c(-c2onc(C(F)(F)F)c2-c2csc(C)n2)c(O)c1,11.9
3,O=C(CN1CCN(Cc2ccccc2F)C1=O)NCc1cccnc1,-5.07
4,CC(=O)Nc1ccc(C(=O)Nc2cc(C(F)(F)F)ccc2-n2cnc3ccccc32)cc1,-38.9
5,c1ccc(N/N=C(\Cc2nc3ccccc3[nH]2)c2ccccc2)cc1,0.953
6,Cc1csc(NC(=O)C2CCCCC2)n1,11.3
7,CC(=NCC1CCCO1)c1c(O)n(C)c(=O)n(C)c1=O (centres unmarked),14.8
8,CCOc1ccc(S(=O)(=O)Nc2nc3ccccc3nc2N2CCN(C)CC2)cc1,3.6
9,C=CCNC(=S)NCC=C,6.77
10,Cn1c(NCc2ccccc2O)nc2ccccc21,-10.6
11,COc1ccc(CN(C)C(=O)c2cc(-c3ccc(C)cc3C)nc3ccccc23)c(OC)c1OC,-14.6
12,O=C(N=C1SC2CS(=O)(=O)CC2N1Cc1ccc(F)cc1)C1CC1 (centres unmarked),4.63
13,COCCNC(=O)CN(C)S(=O)(=O)c1ccc2c(c1)OCCO2,13.9
14,O=C1CC(CCC(=O)NC2CC2)c2ccccc2N1 (centres unmarked),-10.8
15,COc1cc(OC)cc(C(=O)N2CCN(C(=O)c3cccc(F)c3)CC2)c1,-3.19
16,Cc1cccc(C(C(=O)NC2CCCCC2)N(C(=O)c2csnn2)C2CC2)c1 (centres unmarked),7.99
17,CCCn1nnnc1SCC(=O)NC1CCCC1,20.8
18,O=C(c1cn(Cc2ccccc2)nc1-c1ccccc1)N1CCN(c2ccccn2)CC1,-47.7
19,CC(C)OS(C)(=O)=O,13.1
20,CC(C)OP(=O)(OC(C)C)C(O)c1ccc(N(C)C)cc1 (centres unmarked),16.3

row,Compound,"hERG current change (%, negative = inhibition) at 10uM [%]"
1,COCC(=O)Nc1nc(-c2ccccc2)c(C)s1,-8.88
2,CCc1nnc(NC(=O)C2CCN(c3cnccn3)CC2)s1,4.24
3,COc1ccccc1CNC1CCN(Cc2ccccc2)CC1,-3.89
4,O=P(c1ccccc1)(c1ccccc1)c1cc(Br)cc(Br)c1OCCO,-49
5,CCOCCOC(=O)c1cccc(NC(=O)OCC)c1,-1.07
6,CCc1ccc(Nc2cc(=O)n(C3CCCCC3)c(=O)[nH]2)cc1,7.41
7,Cc1ccc(-c2nnc(N3CCN(C(=O)CSc4ncn[nH]4)CC3)c3ccccc23)cc1,-32.6
8,O=S(=O)(/N=C(/Nc1ccccc1)C(F)(F)F)c1ccccc1,-20.7
9,CCCCc1cc(=O)oc2cc(OC(C)C(=O)NCCN3CCOCC3)c(Cl)cc12 (centres unmarked),-19.1
10,CC1CCCCN1C(=O)CNCC1CCCO1.O=C(O)C(=O)O (centres unmarked),29.3
11,COc1ccc(S(=O)(=O)NC2CC(C)(C)NC(C)(C)C2)c2ccccc12,6.47
12,CCOC(=O)c1[nH]c2ccc(OC)cc2c1NC(=O)c1nonc1C,6.27
13,O=C(NC(=S)Nc1cccc(F)c1)c1cccc([N+](=O)[O-])c1,20.6
14,CC(NS(=O)(=O)c1ccccc1)C(=O)Nc1ccc2c(c1)OCCO2 (centres unmarked),1.18
15,Cc1ccccc1NC(=O)/C(=C/c1cccs1)NC(=O)c1ccco1,-2.24
16,Cc1ccccc1C(=O)N1CCN(c2ccc(NC(=O)c3ccc4c(c3)OCCO4)cc2)CC1,4.42
17,O=C(OCn1ncc(Cl)c(Cl)c1=O)c1cccc(C(F)(F)F)c1,1.49
18,CCOC(=O)c1c(NC(=O)CSc2nnnn2C)sc(C(=O)N(C)C)c1C,-1.83
19,CCC1Sc2ccc(S(=O)(=O)CCC(=O)Nc3ccccc3Br)cc2NC1=O (centres unmarked),4.06
20,CC(C)(C)OC(=O)NCCCC1=CC2=CC(=O)C(C)(O)C(=O)C2=CO1 (centres unmarked),8.95

row,Compound,"hERG current change (%, negative = inhibition) at 10uM [%]"
1,CCC(=O)Nc1cccc(C2=NN(c3ccccc3)C(c3ccc(OC)cc3)C2)c1 (centres unmarked),11.6
2,CCn1cc(/C=C/C(=O)Nc2ccc(C)cc2Br)cn1,-30.7
3,Br.O=C(Cn1c(NCCO)nc2ccccc21)c1ccc(Cl)cc1,-2.55
4,O=C(CCc1ccc(Oc2cc([N+](=O)[O-])cc([N+](=O)[O-])c2)cc1)N1CCCCC1,-49.3
5,S=C1NCCOCCNC(=S)NCCOCCOCCN1,22.2
6,CC1(OC(=O)C2CCCC2)C(=O)C=C2C=C(c3ccsc3)N(CCc3c[nH]c4ccccc34)C=C2C1=O (centres unmarked),-11.2
7,Cc1ccc(C2CC(=O)NC(SCC(=O)OCc3ccccc3)=C2C#N)o1 (centres unmarked),4.21
8,O=S1(=O)CCOCCCN1Cc1cccc(C(F)(F)F)c1,9.82
9,CCOC(=O)c1c(C)cccc1OCC(N)=O,8.49
10,CC1(C(=O)Nc2nc3ccc(S(C)(=O)=O)cc3s2)CC1(Cl)Cl (centres unmarked),3.25
11,Cc1nnc(SCC(=O)N2CCc3ccccc3C2)s1,9.88
12,COc1ccc(/C=N/NC(=O)c2nonc2C)cc1,-4.8
13,CCOc1ccc(Nc2cc(=O)oc3ccccc23)cc1,7.78
14,CCn1c(SCC(=O)N2CCOCC2)nnc1-c1cccs1,10.8
15,CC(C)c1ccc(NC(=O)CSc2nc3ccccc3nc2N2CCCC2)cc1,-10
16,COc1ccc(-c2ccnc3nc(/N=C/N(C)C)nn23)cc1,26.6
17,COc1ccccc1-n1cnnc1SCC(=O)NC1CCCCC1,15.6
18,c1ccc(-n2ncc3c(NCc4cccnc4)ncnc32)cc1,-46
19,O=C(O)CCC(=O)Nc1ccc(C(=O)OCC(=O)c2ccc(Cl)cc2)cc1,15.9
